# The other results are listed elsewhere or left out.
# System: HSkMC (human skeletal muscle cells)
# Assay: cytotoxicity call (relative viability < 0.9)
# Details: 10 µM
row,SMILES,cytotoxicity call
1,Cc1ccc(S(=O)(=O)Nc2ccc3c(c2)C(=O)N([C@@H](C)CO)C[C@@H](C)[C@H](CN(C)Cc2ccc(Oc4ccccc4)cc2)O3)cc1,inactive
2,COc1cccc(NC(=O)N[C@@H]2C=C[C@@H](CC(=O)N3CCN(C)CC3)O[C@@H]2CO)c1,inactive
3,COc1ccc(S(=O)(=O)Nc2ccc3c(c2)C(=O)N([C@H](C)CO)C[C@H](C)[C@H](CN(C)C(=O)Nc2ccc(F)cc2)OCCCC[C@H](C)O3)cc1,inactive
4,COc1ccc(CNC(=O)C[C@@H]2CC[C@@H]3[C@H](COc4ccc(NC(=O)C5CC5)cc4C(=O)N3C)O2)cc1,inactive
5,O=C(C[C@@H]1CC[C@H]2[C@@H](COC[C@H](O)CN2S(=O)(=O)c2ccc(Cl)cc2)O1)N[C@@H]1CCN(Cc2ccccc2)C1,inactive
6,C[C@H](CO)N1C[C@H](C)[C@@H](CN(C)C(=O)Cc2ccccc2)OCCCC[C@H](C)Oc2ccc(NS(=O)(=O)c3cccs3)cc2C1=O,inactive
7,Cc1ccc(S(=O)(=O)N(C)C[C@@H]2OCCCC[C@@H](C)Oc3ccc(NC(=O)Nc4ccc5c(c4)OCO5)cc3C(=O)N([C@H](C)CO)C[C@@H]2C)cc1,inactive
8,OCc1cccc(Cn2cncn2)c1,inactive
9,C[C@H](CO)N1C[C@H](C)[C@H](CN(C)C(=O)Nc2ccc3c(c2)OCO3)Oc2ccc(NC(=O)C3CC3)cc2C1=O,inactive
10,C[C@@H]1CN([C@H](C)CO)S(=O)(=O)c2ccc(C3=CCCC3)cc2O[C@H]1CN(C)C(=O)Cc1ccncc1,inactive
11,COc1ccc(CN(C)C[C@@H]2Oc3c(NC(=O)Nc4ccc(C(F)(F)F)cc4)cccc3C(=O)N([C@H](C)CO)C[C@@H]2C)cc1,inactive
12,CCCC#Cc1cnc2c(c1)C(=O)N([C@H](C)CO)C[C@H](C)[C@@H](CN(C)C(=O)c1ccc3c(c1)OCO3)O2,inactive
13,CN(C)CCCNC(=O)C[C@@H]1CC[C@H]2[C@@H](COc3ccc(NC(=O)c4ccccc4F)cc3C(=O)N2C)O1,inactive
14,Cc1nn2c(N)csc2nc1=O,inactive
15,C[C@H](CO)N1C[C@H](C)[C@H](CN(C)Cc2ccc(Oc3ccccc3)cc2)Oc2ccc(NC(=O)C3CC3)cc2C1=O,inactive
16,C=CCNC(=O)CSc1nc(=O)cc(N)[nH]1,inactive
17,CNC[C@@H]1OCCCC[C@@H](C)Oc2ccc(NS(=O)(=O)c3cn(C)cn3)cc2C(=O)N([C@H](C)CO)C[C@H]1C,inactive
18,O=C(C[C@@H]1CC[C@@H]2[C@H](COC[C@@H](O)CN2C(=O)Nc2ccc(C(F)(F)F)cc2)O1)NCc1ccncn1,inactive
19,COc1cccc(-c2ccc([C@@H](Oc3cc(-c4ccc(C[C@H](N)C(=O)O)cc4)nc(N)n3)C(F)(F)F)cc2)c1,inactive
20,O=C(CCCCCCC(=O)N/N=C/c1cccc(B(O)O)c1)NO,inactive

row,SMILES,cytotoxicity call
1,CC[C@@H](C)c1ccc(NC(=O)c2cc3ccccc3o2)cc1,inactive
2,C[C@H](CO)N1C[C@H](C)[C@@H](CN(C)S(=O)(=O)c2ccccc2)Oc2ccc(NS(C)(=O)=O)cc2C1=O,inactive
3,C[C@@H]1CN([C@H](C)CO)C(=O)c2cc(NC(=O)Nc3cccc4ccccc34)ccc2O[C@@H](C)CCCCO[C@H]1CN(C)S(=O)(=O)c1ccc(F)cc1,inactive
4,O=C(C[C@H]1CC=CCC[C@H](Cc2ccc(F)cc2)C(=O)OC[C@@H](Cc2ccccc2)NC1=O)NCCO,inactive
5,C[C@@H]1CN([C@@H](C)CO)C(=O)c2cc(NC(=O)Cc3ccccc3)ccc2O[C@@H](C)CCCCO[C@H]1CN(C)Cc1ccncc1,inactive
6,C[C@H](CO)N1C[C@H](C)[C@@H](CN(C)C(=O)NC2CCCCC2)Oc2cc(-c3cccnc3)ccc2S1(=O)=O,inactive
7,N=C(CN1CCCCC1)NO,inactive
8,C[C@H]1CN([C@@H](C)CO)C(=O)c2c(c3ccccc3n2C)-c2ccccc2CO[C@@H]1CN(C)Cc1ccc(C(=O)O)cc1,inactive
9,C[C@H](CO)N1C[C@H](C)[C@@H](CN(C)Cc2cccc(F)c2)OCc2ccccc2-c2c(n(C)c3ccccc23)C1=O,inactive
10,Cc1noc(C)c1NC(=O)Nc1ccc2c(c1)C(=O)N([C@@H](C)CO)C[C@@H](C)[C@H](CN(C)Cc1ccncc1)OCCCC[C@@H](C)O2,inactive
11,C[C@H]1CN([C@@H](C)CO)S(=O)(=O)c2ccc(C#Cc3ccc(F)cc3)cc2O[C@@H]1CN(C)S(=O)(=O)c1cn(C)cn1,inactive
12,Nc1ccccc1C(=O)NCCN1CCNC1=O,inactive
13,C[C@@H]1CN([C@H](C)CO)C(=O)c2cc(NC(=O)NC3CCCCC3)ccc2O[C@@H](C)CCCCO[C@H]1CN(C)Cc1ccc(C(F)(F)F)cc1,inactive
14,C[C@@H]1CCCCO[C@@H](CN(C)C(=O)c2ccccc2)[C@@H](C)CN([C@@H](C)CO)C(=O)c2cc(NC(=O)Nc3ccccc3)ccc2O1,inactive
15,C[C@@H]1CN([C@@H](C)CO)C(=O)c2cc(NC(=O)Nc3ccc(C(F)(F)F)cc3)ccc2O[C@@H]1CN(C)C(=O)Nc1ccc(C(F)(F)F)cc1,inactive
16,CCN(CC)C(=O)N1CCN(C)CC1,inactive
17,Brc1ccc(CSc2c[nH]c3ccccc23)cc1,inactive
18,CCCCn1c(SCC(N)=O)nc2c1c(=O)n(C)c(=O)n2C,inactive
19,CCCNC(=O)Nc1ccc2c(c1)C(=O)N(C)C[C@H](OC)[C@H](C)CN(C(=O)C1CCOCC1)[C@@H](C)CO2,inactive
